PubChem BioAssay AID1468 (National Center for Advancing Translational Sciences (NCATS), 2008)
Values joined by “and” are separate entries in the source; they are usually repeats but may differ in a detail not shown here. Equal entries are not always repeated. Out of some 280,000 compounds screened, about 1,100 (0.39%) were called active. Inconclusive means that the source gave no clear call. Such entries were picked first, then a sample of the others. Calls follow the shape of the dose curve; as a rule, active = well fitted inhibition curve with a large enough effect; inconclusive = small, poorly fitted or top-dose-only effect, or effect the other way; inactive = flat fitted curve, though single readings scatter. A potency beside an inconclusive call is a rough fit, not a confirmed value.

Molecular target: Microtubule-associated protein tau (Homo sapiens) (UniProt P10636)
Chain of UniProt P10636 (P10636 whole entry, looked up): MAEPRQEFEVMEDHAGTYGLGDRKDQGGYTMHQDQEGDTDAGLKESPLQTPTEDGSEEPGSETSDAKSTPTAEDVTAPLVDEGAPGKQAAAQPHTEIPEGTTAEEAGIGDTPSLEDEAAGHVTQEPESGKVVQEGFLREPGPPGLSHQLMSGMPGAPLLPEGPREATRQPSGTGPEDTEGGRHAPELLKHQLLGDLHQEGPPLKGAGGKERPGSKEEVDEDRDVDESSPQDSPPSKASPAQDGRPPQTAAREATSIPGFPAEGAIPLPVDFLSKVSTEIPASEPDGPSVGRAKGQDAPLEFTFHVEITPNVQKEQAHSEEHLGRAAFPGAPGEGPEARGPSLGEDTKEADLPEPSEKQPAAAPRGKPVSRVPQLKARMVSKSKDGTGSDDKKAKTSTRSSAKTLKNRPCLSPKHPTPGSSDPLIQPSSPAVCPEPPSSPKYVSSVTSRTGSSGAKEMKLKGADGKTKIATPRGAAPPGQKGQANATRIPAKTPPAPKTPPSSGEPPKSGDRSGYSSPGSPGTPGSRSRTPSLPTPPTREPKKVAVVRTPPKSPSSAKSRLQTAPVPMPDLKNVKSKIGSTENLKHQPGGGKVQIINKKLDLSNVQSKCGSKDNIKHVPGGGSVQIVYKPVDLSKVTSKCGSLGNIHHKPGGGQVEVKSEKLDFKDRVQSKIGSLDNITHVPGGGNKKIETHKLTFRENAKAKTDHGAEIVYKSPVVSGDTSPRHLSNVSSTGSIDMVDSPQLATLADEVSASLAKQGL
Assay: qHTS for Inhibitors of Tau Fibril Formation, Fluorescence Polarization; also: nearly all actives have a fitted effect of over 55% in size
Conditions: K18 P301L tau heparin fibrillization, Alexa594 FP, 6 h; series mostly up to 57.7 µM; activity, negative = inhibition: at the top concentration
Description: NIH Molecular Libraries Probe Production Network [MLPCN]
NIH Chemical Genomics Center [NCGC]
Assay Provider: Carlo Ballatore, University of Pennsylvania
The microtubule-associated protein tau is an abundant protein in the axons of neurons that stabilizes microtubules. With its ability to modulate microtubule dynamics, tau contributes directly or indirectly, to key structural and regulatory cellular functions. Particularly important is the influence tau exerts on axonal transport, which allows signaling molecules, trophic factors and other essential cellular constituents to travel along the axons. Under pathological conditions, tau becomes sequestered into insoluble aggregates called neurofibrillary tangles. This phenomenon is believed to have pathological consequences by promoting axonal transport deficits that ultimately lead to synaptic dysfunction and neuronal loss. To identify inhibitors of tau aggregation, a heparin-induced tau fibril formation assay was used that employed a recombinantly expressed fragment of tau, K18 (Q242-E372), bearing a P301L mutation (Gustke et al. 1994; Hong et al. 1998).
Gustke, N., B. Trinczek, et al. (1994). "Domains of tau protein and interactions with microtubules." Biochemistry 33(32): 9511-22.
Hong, M., V. Zhukareva, et al. (1998).
Li, W. and V. M. Lee (2006). "Characterization of two VQIXXK motifs for tau fibrillization in vitro." Biochemistry 45(51): 15692-701.
von Bergen, M., S. Barghorn, et al. (2001). "Mutations of tau protein in frontotemporal dementia promote aggregation of paired helical filaments by enhancing local beta-structure." J Biol Chem 276(51): 48165-74.
NCGC Assay Protocol Summary:
For screening, 2 uL/well human K18 P301L (15 uM unlabeled and 0.24 uM Alexa 594-labeled tau final concentrations) in reagent buffer (100 mM sodium acetate pH 7) was dispensed into black solid 1536-well plates (Grenier) using a solenoid-based dispenser. Following transfer of 23 nL compound or DMSO vehicle by a pin tool, 2 uL/well heparin (20 uM final concentration) in reagent buffer was added and the plate centrifuged 15 s at 1000 RPM. Plates were incubated 6 hr at 37 C and then 1 uL/well ThT (30 uM final concentration) was added. After a 1 hr ambient incubation, the plates were read by an Envision (Perkin Elmer) to monitor Alexa 594 FP (555 nm excitation and 632 nm emission).
Keywords: NIH Roadmap, MLPCN, MLI, MLSMR, NCGC, qHTS, tau, tauopathies, Alzheimer's disease, fibril, neurodegeneration, aggregation
% is scaled to controls: 0 for no effect and ±100 for the full control effect; potency is read from the fitted curve at half-maximal effect; tags tell the direction and shape of the fitted curve.

SMILES | Potency | activity, negative = inhibition
COC(=O)C1CN(C#N)N(c2ccc(Cl)cc2)C12c1ccccc1-c1ccccc12 (centres undefined) | inconclusive: 7.08 µM [inhibitor, full curve] | –
Cc1ccc2c(Cl)cc(Cl)c(O)c2n1 | inconclusive: 0.0251 µM [inhibitor, full curve, poor fit] | –
OCC[n+]1c2ccccc2nc2ccc(N3CCOCC3)cc21 | inconclusive: 31.6 µM [inhibitor, partial curve] | –
COC(=O)NC/C=C\c1nc(CC/C=C\C(=O)O[C@H]2C[C@H]3CC(=O)O[C@@H](/C=C\CC(C)C)C[C@@H]4CC[C@H](C)[C@H](C[C@@H](OC)C[C@H](C2)O3)O4)co1 | – | inactive: 2.24% [at 11.6 µM]
CCOP(=S)(OCC)Oc1nc(Cl)c(Cl)cc1Cl | inconclusive: 44.7 µM [inhibitor, single point] | –
Brc1c(NC2=NCCN2)ccc2nccnc12 | inconclusive: 39.8 µM [inhibitor, single point] and inconclusive: 17.8 µM [inhibitor, partial curve] | –
CCOC(=O)c1oc2ccc(S(=O)(=O)n3nc(-c4ccc(Br)cc4)cc3N)cc2c1C | inconclusive: 17.8 µM [inhibitor, partial curve] | –
CCN(CC)C(=O)c1ccc(NC(=O)c2cccc(F)c2)cc1 | – | inactive: -0.452%
COC[C@H]1OC(=O)c2coc3c2[C@@]1(C)C1=C(C3=O)[C@H]2CCC(=O)[C@@]2(C)C[C@H]1OC(C)=O | active: 28.2 µM | –
O=C(Nc1ccc(F)c([N+](=O)[O-])c1)c1cccn(Cc2ccccc2)c1=O | inconclusive: 25.1 µM [inhibitor, single point] | –
N[C@@H](Cc1c[nH]c2ccccc12)c1nnc(SCc2ccc(Cl)cc2)o1 | inconclusive: 8.91 µM [activator, single point] | –
CCn1c(O)c(C=NCc2cccs2)c(=O)n(CC)c1=S | inconclusive: 8.91 µM [inhibitor, single point] | –
COc1cccc(C(=O)Nc2ccc3nc(SCC(=O)N(C)c4ccccc4)sc3c2)c1 | inconclusive: 2.24 µM [inhibitor, full curve, poor fit] | –
CC(=O)Nc1ccc(NC(=O)CN(c2ccc(C34CC5CC(CC(C5)C3)C4)cc2)S(C)(=O)=O)cc1 | inconclusive: 39.8 µM [inhibitor, single point] | –
CC1(C)CC(=O)C(C2(O)C(=O)NC(=O)NC2=O)=C(O)C1 | inconclusive: 8.91 µM [inhibitor, partial curve] | –
CCCCc1nn2c(=O)cc(COC(=O)Cc3ccccc3)nc2s1 | inconclusive: 12.6 µM [inhibitor, partial curve, poor fit] | –
O=C(OCC1O[C@@H](OC(=O)c2cc(O)c(O)c(O)c2)[C@@H](OC(=O)c2cc(O)c(O)c(O)c2)[C@@H](OC(=O)c2cc(O)c(O)c(O)c2)[C@@H]1OC(=O)c1cc(O)c(O)c(O)c1)c1cc(O)c(O)c(O)c1 (some centres undefined) | inconclusive: 17.8 µM [inhibitor, partial curve] | –
N#CC(C#N)=NNc1ccc(OC(F)(F)F)cc1 | inconclusive: 11.2 µM [activator, partial curve, poor fit] | –
COc1ccc(OC)c(C(O)C(C)N)c1 (centres undefined) | inactive | –
CC(=NCCCn1ccnc1)c1c(O)n(C2CCCCC2)c(=O)[nH]c1=O | inconclusive: 0.0891 µM [inhibitor, full curve, poor fit] | –

SMILES | Potency | activity, negative = inhibition
COc1ccc(CN2CC3CC(C2)c2cccc(=O)n2C3)cc1OC (centres undefined) | inconclusive: 39.8 µM [inhibitor, single point] | –
CCCCC/C=C\C/C=C\C/C=C\C/C=C\CCCC(=O)NCCc1ccc(O)c(O)c1 | inconclusive: 3.16 µM [activator, partial curve] | –
CCCc1cc2c(n1Cc1cccc(Cl)c1)C(C)C1CN(C(=O)c3ccccc3)C(C)(C(=O)OC)C21 (centres undefined) | – | inactive: -6.58%
CSC(=Nc1ccccc1)c1c(O)n(C)c(=O)n(C)c1=O | inconclusive: 35.5 µM [inhibitor, single point] | –
COCCOC(=O)C1=C(C)OC(N)=C(C(=O)OC)C12C(=O)Nc1ccccc12 (centres undefined) | inconclusive: 39.8 µM [inhibitor, single point] | –
O=C1C(Cl)=C(Cl)C(=O)C(Cl)=C1Cl | active: 1.41 µM | –
Cc1ccc(C(=O)c2cc(Br)ccc2N)cc1 | – | inactive: -1.78%
O=C1NC(=O)N(c2cccc(Cl)c2)C(=O)/C1=C\c1ccc(Sc2nc3ccccc3[nH]2)o1 | inconclusive: 15.8 µM [inhibitor, partial curve, poor fit] | –
COCCOC(=O)c1c(N)n(Cc2ccco2)c2nc3ccccc3nc12 | inconclusive: 31.6 µM [inhibitor, partial curve] | –
CCOC(=O)c1c(C)n(Cc2ccccc2)c2ccc(O)cc12 | inconclusive: 4.47 µM [activator, partial curve] | –
CCN1C(=O)C(=Cc2ccc(C)s2)C(=O)N(CC)C1=S | inconclusive: 28.2 µM [inhibitor, single point] | –
O=C(c1cccs1)c1cn(Cc2ccccc2Cl)c2ccccc12 | inconclusive: 8.91 µM [inhibitor, single point] | –
C=CC1CN2CCC1CC2C(OC(=O)OCC)c1ccnc2ccc(OC)cc12 (centres undefined) | – | inactive: -1.9%
O=C(Nc1cc(C(F)(F)F)cc(C(F)(F)F)c1)c1cccn(Cc2ccccc2Cl)c1=O | inconclusive: 20 µM [inhibitor, partial curve, poor fit] | –
O=C1NC(=O)N(Cc2ccccc2)C(=O)/C1=C\C=C\c1ccco1 | inconclusive: 17.8 µM [inhibitor, partial curve] | –
c1ccc2nc3ccccc3nc2c1 | inconclusive: 44.7 µM [inhibitor, single point] | –
N#C/C(=C\c1ccc(O)c(O)c1)C(N)=S | inconclusive: 31.6 µM [inhibitor, partial curve] and inconclusive: 15.8 µM [inhibitor, partial curve] | –
N#CC1=C(N)Oc2n[nH]c(-c3cccs3)c2C1c1ccco1 (centres undefined) | inconclusive: 20 µM [inhibitor, single point] | –
O=C(c1ccccc1F)c1cn(Cc2ccc(F)cc2)c2ccccc12 | inconclusive: 31.6 µM [inhibitor, single point] | –
COc1ccccc1NC(=O)c1oc2ccccc2c1NC(=O)c1ccccc1C(F)(F)F | inconclusive: 14.1 µM [inhibitor, partial curve] | –

SMILES | Potency | activity, negative = inhibition
CN1C[C@@H](C(=O)N[C@@]2(C)O[C@]3(O)C4CCCN4C(=O)[C@@H](Cc4ccccc4)N3C2=O)C=C2c3cccc4[nH]cc(c34)C[C@@H]21 (some centres undefined) | inconclusive: 7.08 µM [inhibitor, partial curve] | –
Cc1ccc(-c2nnc(Nc3ccc(Br)cc3)c3ccccc23)cc1S(=O)(=O)NCc1nc2ccccc2[nH]1 | inconclusive: 31.6 µM [inhibitor, partial curve] | –
Cc1ccc(-c2nc3ccccc3c(=O)n2-c2ccncc2)cc1 | – | inactive: 2.18%
O=C(c1ccccc1)c1ccc(N=Nc2c(O)[nH]c(=O)[nH]c2=O)cc1 | – | inactive: 3.12%
CCc1ccc(-n2c(O)c(/C=N/NC(=O)c3ccncc3)c(=O)[nH]c2=O)cc1 | inconclusive: 39.8 µM [inhibitor, single point] | –
CCCCN1C(=O)NC(=O)C2(Cc3cc(C)ccc3N(C)C2)C1=O (centres undefined) | inconclusive: 11.2 µM [inhibitor, partial curve] | –
NC1CCc2cc(O)c(O)cc2C1 (centres undefined) | inconclusive: 3.55 µM [inhibitor, full curve] | –
Cc1ccc(N2C(=O)NC(=O)/C(=C/c3cnc(-c4ccccc4)nc3)C2=O)cc1C | inconclusive: 28.2 µM [inhibitor, single point] | –
CC[C@H]1CN2CCc3cc(OC)c(OC)cc3[C@H]2C[C@@H]1C[C@@H]1NCCc2cc(OC)c(OC)cc21 | inconclusive: 44.7 µM [inhibitor, single point] | –
COc1ccccc1N1C(=O)NC(=O)/C(=C\c2cnn(-c3ccccc3)c2)C1=O | – | inactive: -6%
CC(C)OCCCNC(=O)c1c(N)n(Cc2cccs2)c2nc3ccccc3nc12 | inconclusive: 17.8 µM [inhibitor, single point] | –
CC(C)[C@H](CO)Nc1nc(Nc2cccc(Cl)c2)c2ncn(C(C)C)c2n1 | inconclusive: 11.2 µM [activator, partial curve] | –
Cn1c(=O)c2[nH]cnc2n(C)c1=O | inconclusive: 7.94 µM [inhibitor, single point] | –
C[C@@H]1OC=C2[C@@H](O)[C@H]3O[C@H]3C(=O)[C@@]23[C@H]1[C@H]1C2=C([C@@H](O)[C@H]4O[C@@H]4C2=O)[C@@H]3O[C@@H]1C | inconclusive: 3.98 µM [inhibitor, partial curve] | –
O=C1CC(c2cccnc2)=NN1c1ccc(Cl)cc1Cl | inconclusive: 3.98 µM [inhibitor, partial curve] | –
Cc1cccc(N2C(=O)CSC23C(=O)N(CC(=O)Nc2cccc(Cl)c2)c2ccccc23)c1 (centres undefined) | active: 25.1 µM | –
CC(C)Oc1ccc(C2C(C#N)=C(N)Oc3c2c(=O)oc2ccccc32)cc1 (centres undefined) | inconclusive: 10 µM [inhibitor, partial curve, poor fit] | –
CCN(CC)S(=O)(=O)c1ccc(C)c(NCC(=O)Nc2ccc(C#N)c(Cl)c2)c1 | inconclusive: 39.8 µM [inhibitor, single point] | –
COC(=O)CCC(=O)Nc1sc(Cc2ccccc2)c(C)c1C(N)=O | inconclusive: 39.8 µM [inhibitor, single point] | –
